# Test results reported in the supplement of paper PMC8728848.
# The list shows a part of the results.
# Experiments:
# Assay in all cases: glycan array binding signal (z-score within array); higher = stronger binding
# Conditions in all cases: glycan notation: IUPAC condensed, linker removed
# [1] = molecular target: Neu5Ac(a2-3)Gal(b1-3)]Neu5Ac(a2-3)Gal(b1-4)]GlcNAc
# Summary of the method: (§1)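 The Consortium for Functional Glycomics database supplied 3228 glycan arrays, of which those lacking an available protein sequence were dropped. The binding signal, a within-array Z-score, was averaged across arrays of the same protein sequence and across linkers. Negative scores can be read as non-binding.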
# Neu5Ac(a2-3)Gal(b1-4)Glc = molecular target: Neu5Ac(a2-3)Gal(b1-4)Glc
# Summary of the method: as §1
# [2] = molecular target: Neu5Ac(a2-3)Gal(b1-4)GlcNAc
# Summary of the method: as §1
# [3] = molecular target: Neu5Ac(a2-3)Gal(b1-4)GlcNAc(b1-2)Man
# Summary of the method: as §1
# [4] = molecular target: Neu5Ac(a2-3)Gal(b1-4)GlcNAc(b1-2)Man(a1-3)[GlcNAc(b1-4)][Neu5Ac(a2-3)Gal(b1-4)GlcNAc(b1-2)Man(a1-6)]Man(b1-4)GlcNAc(b1-4)GlcNAc
# Summary of the method: as §1
# [5] = molecular target: Neu5Ac(a2-3)Gal(b1-4)GlcNAc(b1-2)Man(a1-3)[Neu5Ac(a2-3)Gal(b1-4)GlcNAc(b1-2)Man(a1-6)]Man(b1-4)GlcNAc(b1-4)GlcNAc
# Summary of the method: as §1
# [6] = molecular target: Neu5Ac(a2-3)Gal(b1-4)GlcNAc(b1-2)Man(a1-3)[Neu5Ac(a2-3)Gal(b1-4)GlcNAc(b1-2)Man(a1-6)]Man(b1-4)GlcNAc(b1-4)[Fuc(a1-6)]GlcNAc
# Summary of the method: as §1
# [7] = molecular target: Neu5Ac(a2-3)Gal(b1-4)GlcNAc(b1-2)Man(a1-3)[Neu5Ac(a2-6)Gal(b1-4)GlcNAc(b1-2)Man(a1-6)]Man(b1-4)GlcNAc(b1-4)GlcNAc
# Summary of the method: as §1
# [8] = molecular target: Neu5Ac(a2-3)Gal(b1-4)GlcNAc(b1-2)[Neu5Ac(a2-3)Gal(b1-4)GlcNAc(b1-4)]Man(a1-3)[GlcNAc(b1-4)][Neu5Ac(a2-3)Gal(b1-4)GlcNAc(b1-2)[Neu5Ac(a2-3)Gal(b1-4)GlcNAc(b1-6)]Man(a1-6)]Man(b1-4)GlcNAc(b1-4)GlcNAc
# Summary of the method: as §1
# [9] = molecular target: Neu5Ac(a2-3)Gal(b1-4)GlcNAc(b1-2)[Neu5Ac(a2-3)Gal(b1-4)GlcNAc(b1-4)]Man(a1-3)[GlcNAc(b1-4)][Neu5Ac(a2-3)Gal(b1-4)GlcNAc(b1-4)Man(a1-6)]Man(b1-4)GlcNAc(b1-4)GlcNAc
# Summary of the method: as §1
# [10] = molecular target: Neu5Ac(a2-3)Gal(b1-4)GlcNAc(b1-2)[Neu5Ac(a2-3)Gal(b1-4)GlcNAc(b1-6)]Man(a1-6)[Neu5Ac(a2-3)Gal(b1-4)GlcNAc(b1-2)Man(a1-3)]Man(b1-4)GlcNAc(b1-4)GlcNAc
# Summary of the method: as §1
# [11] = molecular target: Neu5Ac(a2-3)Gal(b1-4)GlcNAc(b1-2)[Neu5Ac(a2-3)Gal(b1-4)GlcNAc(b1-6)]Man(a1-6)[Neu5Ac(a2-3)Gal(b1-4)GlcNAc(b1-2)Man(a1-3)][GlcNAc(b1-4)]Man(b1-4)GlcNAc(b1-4)GlcNAc
# Summary of the method: as §1
# [12] = molecular target: Neu5Ac(a2-3)Gal(b1-4)GlcNAc(b1-3)Gal
# Summary of the method: as §1
# [13] = molecular target: Neu5Ac(a2-3)Gal(b1-4)GlcNAc(b1-3)Gal(b1-3)GlcNAc
# Summary of the method: as §1
# [14] = molecular target: Neu5Ac(a2-3)Gal(b1-4)GlcNAc(b1-3)Gal(b1-4)GlcNAc
# Summary of the method: as §1
# [15] = molecular target: Neu5Ac(a2-3)Gal(b1-4)GlcNAc(b1-3)Gal(b1-4)GlcNAc(b1-2)Man(a1-3)[Neu5Ac(a2-3)Gal(b1-4)GlcNAc(b1-3)Gal(b1-4)GlcNAc(b1-2)Man(a1-6)]Man(b1-4)GlcNAc(b1-4)GlcNAc
# Summary of the method: as §1
# [16] = molecular target: Neu5Ac(a2-3)Gal(b1-4)GlcNAc(b1-3)Gal(b1-4)GlcNAc(b1-3)Gal(b1-4)GlcNAc
# Summary of the method: as §1
# [17] = molecular target: Neu5Ac(a2-3)Gal(b1-4)GlcNAc(b1-3)Gal(b1-4)GlcNAc(b1-3)Gal(b1-4)GlcNAc(b1-2)Man(a1-3)[Neu5Ac(a2-3)Gal(b1-4)GlcNAc(b1-3)Gal(b1-4)GlcNAc(b1-3)Gal(b1-4)GlcNAc(b1-2)Man(a1-6)]GalNAc
# Summary of the method: as §1
# [18] = molecular target: Neu5Ac(a2-3)Gal(b1-4)GlcNAc(b1-3)Gal(b1-4)GlcNAc(b1-3)GalNAc
# Summary of the method: as §1
# [19] = molecular target: Neu5Ac(a2-3)Gal(b1-4)GlcNAc(b1-3)Gal(b1-4)GlcNAc(b1-3)[Neu5Ac(a2-3)Gal(b1-4)GlcNAc(b1-3)Gal(b1-4)GlcNAc(b1-6)]GalNAc
# Summary of the method: as §1
# [20] = molecular target: Neu5Ac(a2-3)Gal(b1-4)GlcNAc(b1-3)Gal(b1-4)GlcNAc(b1-6)[Gal(b1-3)]GalNAc
# Summary of the method: as §1
# [21] = molecular target: Neu5Ac(a2-3)Gal(b1-4)GlcNAc(b1-3)Gal(b1-4)[Fuc(a1-3)]GlcNAc
# Summary of the method: as §1
# [22] = molecular target: Neu5Ac(a2-3)Gal(b1-4)GlcNAc(b1-3)GalNAc
# Summary of the method: as §1
# [23] = molecular target: Neu5Ac(a2-3)Gal(b1-4)GlcNAc(b1-3)[Neu5Ac(a2-3)Gal(b1-4)GlcNAc(b1-6)]GalNAc
# Summary of the method: as §1
# [24] = molecular target: Neu5Ac(a2-3)Gal(b1-4)GlcNAc(b1-6)GalNAc
# Summary of the method: as §1
# [25] = molecular target: Neu5Ac(a2-3)Gal(b1-4)GlcNAc(b1-6)[Gal(b1-3)]GalNAc
# Summary of the method: as §1
# [26] = molecular target: Neu5Ac(a2-3)Gal(b1-4)GlcNAc(b1-6)[Neu5Ac(a2-3)Gal(b1-3)]GalNAc
# Summary of the method: as §1
# [27] = molecular target: Neu5Ac(a2-3)Gal(b1-4)GlcNAc6S
# Summary of the method: as §1
# [28] = molecular target: Neu5Ac(a2-3)Gal(b1-4)[Fuc(a1-3)]GlcNAc
# Summary of the method: as §1
# [29] = molecular target: Neu5Ac(a2-3)Gal(b1-4)[Fuc(a1-3)]GlcNAc(b1-2)Man
# Summary of the method: as §1
# [30] = molecular target: Neu5Ac(a2-3)Gal(b1-4)[Fuc(a1-3)]GlcNAc(b1-3)Gal
# Summary of the method: as §1
# [31] = molecular target: Neu5Ac(a2-3)Gal(b1-4)[Fuc(a1-3)]GlcNAc(b1-3)Gal(b1-4)GlcNAc
# Summary of the method: as §1
# [32] = molecular target: Neu5Ac(a2-3)Gal(b1-4)[Fuc(a1-3)]GlcNAc(b1-3)Gal(b1-4)[Fuc(a1-3)]GlcNAc(b1-3)Gal(b1-4)[Fuc(a1-3)]GlcNAc
# Summary of the method: as §1
# [33] = molecular target: Neu5Ac(a2-3)Gal(b1-4)[Fuc(a1-3)]GlcNAc(b1-3)GalNAc
# Summary of the method: as §1
# [34] = molecular target: Neu5Ac(a2-3)Gal(b1-4)[Fuc(a1-3)]GlcNAc(b1-6)[Gal(b1-3)]GalNAc
# Summary of the method: as §1
# [35] = molecular target: Neu5Ac(a2-3)Gal(b1-4)[Fuc(a1-3)]GlcNAc(b1-6)[Neu5Ac(a2-3)Gal(b1-3)]GalNAc
# Summary of the method: as §1
# [36] = molecular target: Neu5Ac(a2-3)Gal(b1-4)[Fuc(a1-3)]GlcNAc6S
# Summary of the method: as §1
# [37] = molecular target: Neu5Ac(a2-3)Gal6S(b1-4)GlcNAc
# Summary of the method: as §1
binder,measurement,setting,value
"Epa3 (Candida glabrata), Q6VBI8_CANGB (protein) MGSSHHHHHHSSGLVPRGSHMNDLGFSLFEKRELSSQNPFGYPIGCSPQDVAIIPGLTMELYSYPIVSGTPPNCYDASYVDPEYPRTGYLKRKMVGKSTGVTGNLNYKYSVEKACMVKYGNLPAGYNYNEPLTVSNFTMILYGYFKAQTTGLHTFFVNADDLLYINFGAGNAFDCCKREDSKTKLGEYVAYDIWHVDSSKNKVSLFLEKDLYYPIRMFFNNIGKDSSLDLSFSVNGATDQISDFSGYLYSVPDQPDTCPAHIGYDTTCR",glycan array binding signal (z-score),[1],-0.394
same,glycan array binding signal (z-score),Neu5Ac(a2-3)Gal(b1-4)Glc,-0.174
same,glycan array binding signal (z-score),[2],-0.115
same,glycan array binding signal (z-score),[3],0.518
same,glycan array binding signal (z-score),[4],-0.348
same,glycan array binding signal (z-score),[5],-0.184
same,glycan array binding signal (z-score),[6],0.122
same,glycan array binding signal (z-score),[7],-0.3
same,glycan array binding signal (z-score),[8],-0.169
same,glycan array binding signal (z-score),[9],-0.312
same,glycan array binding signal (z-score),[10],-0.15
same,glycan array binding signal (z-score),[11],-0.387
same,glycan array binding signal (z-score),[12],-0.282
same,glycan array binding signal (z-score),[13],-0.245
same,glycan array binding signal (z-score),[14],-0.267
same,glycan array binding signal (z-score),[15],0.252
same,glycan array binding signal (z-score),[16],-0.435
same,glycan array binding signal (z-score),[17],0.301
same,glycan array binding signal (z-score),[18],-0.372
same,glycan array binding signal (z-score),[19],-0.137
same,glycan array binding signal (z-score),[20],0.322
same,glycan array binding signal (z-score),[21],-0.306
same,glycan array binding signal (z-score),[22],-0.275
same,glycan array binding signal (z-score),[23],-0.156
same,glycan array binding signal (z-score),[24],-0.062
same,glycan array binding signal (z-score),[25],0.921
same,glycan array binding signal (z-score),[26],-0.207
same,glycan array binding signal (z-score),[27],-0.262
same,glycan array binding signal (z-score),[28],-0.335
same,glycan array binding signal (z-score),[29],-0.012
same,glycan array binding signal (z-score),[30],-0.323
same,glycan array binding signal (z-score),[31],0.105
same,glycan array binding signal (z-score),[32],-0.263
same,glycan array binding signal (z-score),[33],0.344
same,glycan array binding signal (z-score),[34],0.355
same,glycan array binding signal (z-score),[35],0.037
same,glycan array binding signal (z-score),[36],-0.194
same,glycan array binding signal (z-score),[37],-0.119
